Results taken from PubChem BioAssay AID504706 (National Center for Advancing Translational Sciences (NCATS), 2011).
Out of some 320,000 compounds screened, about 200 (0.062%) were called active. Inconclusive means that the source gave no clear call. Such entries were picked first, then a sample of the others. Calls follow the shape of the dose curve; as a rule, active = well fitted activation curve with a large enough effect; inconclusive = small, poorly fitted or top-dose-only effect; inactive = no such curve, though single readings can be large or run the other way. Potencies of inconclusive entries are left out as doubtful fits.
Potency is read from the fitted curve at half-maximal effect; tags tell the direction and shape of the fitted curve.

Assay: qHTS assay for re-activators of p53 using a Luc reporter; also: nearly all actives have a fitted effect of over 45% in size
Details: H1299 p53-A138V BP100-luciferase reporter, luminescence, 24 h; series mostly up to 92.2 µM
Method in brief: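 p53-null H1299 cells stably carrying temperature-sensitive p53-A138V and a BP100-luciferase reporter were pinned with compounds (4-point, 1:5 series) and held 24 hrs at 37 deg C. Luminescence was read 10 min after detection reagent.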
For COc1ccc(N/N=C(/N=Nc2nc(C)cc(=O)[nH]2)c2ccccc2)cc1, the Potency was inconclusive [activator, partial curve, poor fit]. In the case of Cc1ccc(-c2csc(Cc3nc(-c4cc5ccccc5oc4=O)cs3)n2)cc1, the Potency was “inactive”. With CCOCC(=O)Nc1nc2ccc(C)cc2s1 the Potency was inconclusive [activator, partial curve, poor fit]. With COc1ccc(-c2nnn(Cc3ccccc3F)n2)cc1 the Potency was inconclusive [activator, partial curve, poor fit]. With Cc1ccnc(NC(=O)Cn2c(=O)oc3ccccc32)c1 the Potency was inconclusive [activator, partial curve, poor fit]. In the case of CC(C)COC(=O)N1CCCC1C(=O)O (centres undefined), the Potency was inconclusive [activator, partial curve, poor fit]. For COc1cc(C(=O)Oc2cccc(Nc3ncnc4ccccc34)c2)cc(OC)c1OC, the Potency was inconclusive [activator, full curve, poor fit]. With Cc1cccc(C)c1NC(=O)CN(C)C(=O)[C@H](C)NC(=O)c1ccco1 the Potency was “inactive”. For O=C(c1ccc(CNS(=O)(=O)c2ccccc2)cc1)N1CCN(c2ccccn2)CC1, the Potency was “inactive”. For Cc1onc(-c2ccccc2Cl)c1C(=O)N(C)CC(=O)Nc1ccc(F)c(F)c1F, the Potency was “inactive”. With Cc1c(/C(O)=C2/C(=O)C(=O)N(CCN3CCOCC3)C2c2cccs2)cnn1-c1ccccc1 (centres undefined) the Potency was inconclusive [activator, full curve, poor fit]. For Clc1ccc(N2N=C(c3cccs3)CC2c2ccco2)cc1 (centres undefined), the Potency was “inactive”. With N#Cc1c(N)n(C2CCCCC2)c2nc3ccccc3nc12 the Potency was “inactive”. With O=C(CCN1C(=O)/C(=C\c2cccc(Br)c2)SC1=S)NCCCN1CCOCC1 the Potency was inconclusive [activator, partial curve, poor fit]. In the case of COc1ccc(NCc2ccc([N+](=O)[O-])s2)cc1, the Potency was inconclusive [activator, partial curve, poor fit]. For O=C(Nc1ccc(OC(F)(F)F)cc1)N1CCN(c2ccnc3cc(Cl)ccc23)CC1, the Potency was “inactive”. With CC1=NN(C(=O)CCc2ccccc2)C(c2ccccc2)C1 (centres undefined) the Potency was “inactive”. In the case of COc1ccc(/C(N)=N/OC(=O)Cc2ccc(OC)c(OC)c2)cc1, the Potency was “inactive”. For O=C(O)C(Cc1c[nH]c2ccccc12)NS(=O)(=O)c1ccc2ccccc2c1 (centres undefined), the Potency was inconclusive [activator, partial curve, poor fit]. In the case of CN(N=Nc1cccc([N+](=O)[O-])c1)c1ccccc1, the Potency was inconclusive [activator, single point]. In the case of COc1ccc(NC2=C(Cl)C(=O)N(CCc3ccccc3)C2=O)c(OC)c1, the Potency was inconclusive [activator, partial curve, poor fit]. In the case of CCCC1Oc2ccccc2C(=O)N(CC(=O)c2ccc3c(c2)OCCO3)C1=O (centres undefined), the Potency was inconclusive [activator, partial curve, poor fit]. With O=C(c1ccc2ccccc2c1)N1CCN(Cc2ccccc2)CC1 the Potency was inconclusive [activator, partial curve, poor fit]. With O=C(Nc1ccc2oc(-c3cccnc3)nc2c1)c1ccco1 the Potency was “inactive”. With CN1CCS/C1=C/C=C1/SC(=S)N(Cc2ccccc2)C1=O the Potency was inconclusive [activator, partial curve, poor fit]. In the case of O=c1c2ccccc2cnn1-c1nc2ccccc2[nH]1, the Potency was “inactive”. In the case of NC(=O)c1c(-c2ccc(Cl)cc2Cl)csc1NC(=O)Cc1ccccc1, the Potency was “inactive”. In the case of CC(=O)Nc1nc2cc3c(cc2s1)OCO3, the Potency was inconclusive [activator, partial curve, poor fit]. For O=C(CNC(=S)NC(=O)C1CCCCC1)c1ccccc1, the Potency was inconclusive [activator, partial curve, poor fit]. In the case of CN(C)c1ccc(C(=O)N=c2sccn2C)cc1[N+](=O)[O-], the Potency was inconclusive [activator, single point]. In the case of O=C(CCS(=O)(=O)c1ccccc1)Nc1nc2cc3c(cc2s1)OCO3, the Potency was inconclusive [activator, partial curve, poor fit]. For O=C(CCn1c(SCC(=O)NCc2ccco2)nc2ccccc2c1=O)NCCc1ccccc1, the Potency was inconclusive [activator, single point]. In the case of O=C(O)/C(=C\C(=O)c1ccccc1)Nc1ccccc1, the Potency was inconclusive [activator, single point]. With Cc1cc(C(=O)OCC(=O)NCc2ccco2)c(C)n1-c1ccc(F)cc1 the Potency was inconclusive [activator, partial curve, poor fit]. For Cn1cc(SCC(=O)Nc2nccs2)c2ccccc21, the Potency was inconclusive [activator, partial curve, poor fit]. For CC(=O)Nc1nc(SCc2cccc3ccccc23)n[nH]1, the Potency was inconclusive [activator, single point]. In the case of CCOC(=O)N1CCC(NC(=O)c2oc3c(F)cccc3c2C)CC1, the Potency was inconclusive [activator, partial curve, poor fit]. In the case of Cn1cccc1C(=O)OCC(=O)c1c[nH]c2ccccc12, the Potency was inconclusive [activator, partial curve, poor fit]. For Cc1ccccc1-n1c(C)nnc1SCc1nc2ccccc2s1, the Potency was inconclusive [activator, partial curve, poor fit]. With CC(=O)Nc1nc(=O)c2ccccc2s1 the Potency was “inactive”. In the case of COc1nc(C)ccc1-c1noc(-c2ccncc2)n1, the Potency was inconclusive [activator, full curve, poor fit]. In the case of CCOC(=O)c1cnc2ccc(OCC)cc2c1NCc1cccnc1, the Potency was inconclusive [activator, single point]. In the case of O=C(NN=C(c1ccccc1)c1ccccn1)c1ccccc1, the Potency was inconclusive [activator, partial curve, poor fit]. In the case of C=C(C)C1Cc2cc3ccc(=O)oc3cc2O1 (centres undefined), the Potency was inconclusive [activator, full curve, poor fit]. For CC(C)(CO)NCc1ccccc1OCC(=O)Nc1ccccc1, the Potency was “inactive”. In the case of COC(=O)Cc1ccc(NC(=S)Nc2ccccn2)cc1, the Potency was “inactive”. For O=C(Nc1ccc(-c2cn3ccccc3n2)cc1)c1ccco1, the Potency was inconclusive [activator, partial curve, poor fit]. For O=C(Nc1nc(-c2cccs2)cs1)c1cccc(S(=O)(=O)N2CCCCCC2)c1, the Potency was inconclusive [activator, partial curve, poor fit]. For O=C(O)c1ccc(NC(=O)c2ccc3c(c2)C(=O)N(CC2CCCO2)C3=O)cc1 (centres undefined), the Potency was “inactive”. For COc1ccc(NC(=O)Cn2nc(C(=O)O)c3ccccc3c2=O)cc1S(=O)(=O)N1CCCCC1, the Potency was “inactive”. In the case of Cc1ccsc1C1NC(=O)c2c(sc3c2CCCC3)N1 (centres undefined), the Potency was inconclusive [activator, partial curve]. In the case of CC(C)c1ccc(/C=C/C(=O)N2CCCCCC2)cc1, the Potency was inconclusive [activator, partial curve, poor fit]. With Cc1cc(C)c(C)c(S(=O)(=O)Nc2ccccc2C(=O)NCCCn2ccnc2)c1C the Potency was “inactive”. With O=C(NN1C(=O)c2cc(Br)ccc2NC1c1cc(Br)cc(Br)c1O)c1ccncc1 (centres undefined) the Potency was “inactive”. In the case of CC(C)c1ccc(CNc2ccc([N+](=O)[O-])cn2)cc1, the Potency was inconclusive [activator, partial curve, poor fit]. In the case of O=C(Nc1ccccc1)C(=O)c1c[nH]c2ccccc12, the Potency was inconclusive [activator, single point]. For C/C(NCCCn1ccnc1)=C(\C#N)C(N)=O, the Potency was inconclusive [activator, single point]. In the case of C/C(=N\NC(=S)Nc1ccc(F)cc1)c1ccc2c(c1)OCCO2, the Potency was inconclusive [activator, partial curve, poor fit]. With N/C(=N\OC(=O)COc1ccc(Br)cc1Cl)c1ccncc1 the Potency was inconclusive [activator, partial curve]. For Cc1ccc(-n2ncc3c(=O)n(CC(=O)OCc4ccccc4)cnc32)cc1, the Potency was inconclusive [activator, partial curve, poor fit]. For CC(C)(C)c1csc(NNC(=O)c2ccc(Cl)cc2)n1, the Potency was inconclusive [activator, full curve, poor fit]. In the case of Cc1ccc(N2C(=O)c3ccccc3NC2c2ccccc2O)cc1 (centres undefined), the Potency was inconclusive [activator, full curve, poor fit]. For CCOc1ccc2nc(NC(=O)c3ccco3)sc2c1, the Potency was “inactive”. In the case of COc1ccc(/C=C2\SC(=O)NC2=S)cc1OC, the Potency was inconclusive [activator, partial curve, poor fit]. For Cc1cccc(-n2c(C)cc(/C=N\NC(=O)c3cccs3)c2C)c1, the Potency was inconclusive [activator, partial curve, poor fit]. In the case of O=C(CSc1ccc(-c2ccccc2)nn1)Nc1ccc2c(c1)OCCO2, the Potency was inconclusive [activator, partial curve, poor fit]. In the case of O=C(CCSCc1ccccc1F)N1CCN(c2ccccn2)CC1, the Potency was “inactive”. In the case of CCN(CC)S(=O)(=O)c1ccc(/C=C/C(=O)Nc2ccc(F)c(F)c2F)cc1, the Potency was “inactive”. With Cc1occc1C(=O)NCCCc1ccccc1 the Potency was inconclusive [activator, partial curve, poor fit].
